# This is one part of the list. Sequences were assembled here from the parent chain. Values near 0.05 are background.
# B1: TEV protease; numbered along this chain (parent)
# chain: MGESLFKGPRDYNPISSSICHLTNESDGHTTSLYGIGFGPFIITNKHLFRRNNGTLVVQSLHGVFKVKDTTTLQQHLVDGRDMIIIRMPKDFPPFPQKLKFREPQREERICLVTTNFQTKSMSSMVSDTSCTFPSGDGIFWKHWIQTKDGQCGSPLVSTRDGFIVGIHSASNFTNTNNYFTSVPKNFMELLTNQEAQQWVSGWRLNADSVLWGGHKVFMVKPEEPFQPVKEATQL
# Variants of: B1
# Assay: raw area under fraction-flipped curve 0-4 h after induction (AUC4h, not background-subtracted), DNA-recorder readout of cleavage of the substrate (dimensionless); higher = more cleavage of the substrate by the protease variant
# Conditions: temperature: 34 °C; time window: 0-4 h after rhamnose induction
# Experimental: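 In vivo DNA recorder in E. coli TOP10(DE3) ΔrhaA at 34 °C. Each TEVp single-site mutant (parent TEVp 0) is paired with a single-site variant of the 7-mer TEVs (canonical ENLYFQ|S). The substrate sits between flexible linkers in a Bxb1-sfGFP-TEVs-SsrA fusion, so cleavage stabilises Bxb1 and speeds flipping of a recombination array, read by NGS. The value is the raw area under the fraction-flipped curve over 0-4 h after rhamnose induction (AUC4h), with ≥20 reads per time point. It is not background-subtracted; inactive controls average about 0.047.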
# 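Also: Bxb1 expression induced with 0.2% (w/v) L-rhamnose at OD600 near 0.5, cultures sampled hourly, flipped fraction per protease–substrate barcode pair counted by paired-end Illumina sequencing.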
Variant,area with substrate ANLYFQS,area with substrate CNLYFQS,area with substrate FNLYFQS,area with substrate GNLYFQS,area with substrate HNLYFQS,area with substrate INLYFQS,area with substrate KNLYFQS,area with substrate LNLYFQS,area with substrate MNLYFQS,area with substrate NNLYFQS,area with substrate PNLYFQS,area with substrate QNLYFQS,area with substrate RNLYFQS,area with substrate SNLYFQS,area with substrate VNLYFQS,area with substrate WNLYFQS,area with substrate YNLYFQS,area with substrate DNLYFQS,area with substrate TNLYFQS
K142H,0.0753,0.0767,0.0619,0.0723,0.0706,0.07,0.0722,0.0649,0.0685,0.0665,0.0704,0.0621,0.0709,0.0729,0.0755,0.0618,0.0689,,
I36L,0.0462,,0.0808,0.0467,0.0678,0.056,0.0631,0.0672,0.07,0.0726,0.0787,,,0.0603,,,0.0386,0.0922,0.072
A207V,0.0569,,,0.06,0.0657,,0.0657,0.0713,0.0555,0.0702,,,0.0622,,0.0687,0.0628,0.0651,0.0807,0.0701
R102Q,0.0402,,0.0408,0.0375,0.0514,,,,,0.0509,,,,0.0495,,0.0498,0.023,0.0448,0.0317
G37K,0.042,,0.0411,,0.048,0.0441,0.0625,0.0531,0.0507,0.0505,0.0525,,,,0.056,0.048,0.0301,0.0167,0.0615
Q194P,0.0719,0.112,0.0693,,0.0736,0.0372,,,,0.0628,0.0656,,,,0.0748,0.0343,,,
K66V,0.0561,0.0615,0.0689,,0.0606,,,,,,0.0617,,,,,,0.0736,,0.0743
N116K,0.0638,0.0705,,,,,,,,,,,0.0623,0.072,0.0669,0.0659,0.035,,
N186E,0.0519,0.0605,,,0.0634,,,,,0.0783,,0.082,,,0.0426,0.0796,,,0.0583
E223C,0.0632,0.104,,0.0633,0.0637,0.0615,,0.0463,0.0675,0.0816,0.0782,,,0.0612,0.0671,0.0656,0.0578,,0.0625
T115W,0.0753,,,0.0756,,0.0562,,0.0581,,,,,0.0622,,0.0739,0.0888,0.0645,0.0668,0.0766
C20V,0.0631,,,,0.0633,0.0802,0.0818,0.0597,,0.0751,,,0.0669,0.0743,,0.0597,0.0627,0.0866,0.0779
C20H,0.0428,0.0469,0.0347,0.033,0.0523,0.0422,,,,0.0409,0.0553,0.0279,,0.0515,,0.0466,0.0599,,0.052
M83I,0.0659,,,,0.0613,,,0.0775,,,0.08,,,,,0.056,,0.0596,0.0596
S127H,0.0677,0.0809,0.0584,,0.0572,0.0712,0.0729,,0.0735,0.0717,0.0691,0.0486,0.0556,0.0785,0.0372,0.056,0.0615,,0.0595
S127A,0.0768,0.0716,0.0609,,0.0697,,0.0703,0.0864,0.0694,,0.0716,0.0533,,0.0705,,0.0516,,,0.0706
K46Y,0.0882,,,0.054,0.06,0.0364,0.0597,,0.0447,0.0345,,0.0471,,,,0.0538,0.0438,0.0595,0.0594
K46L,0.0565,,,0.0675,0.0622,0.0656,0.0675,0.0642,0.0671,0.0611,0.0606,,,0.0573,,0.0677,0.0625,0.0496,0.0325
P222Q,0.0551,0.0755,0.066,0.0867,0.0686,0.069,0.0754,0.0585,0.0649,0.0587,0.0559,0.0566,,0.0627,,0.0602,,,0.0855
P155Y,0.0486,0.0693,0.0543,0.0474,0.0591,0.0374,0.058,0.0524,0.0422,,0.0567,,,0.0465,0.0548,0.0527,0.0391,,0.037
I139F,0.056,,,0.0687,0.067,,0.0461,0.0616,,,0.0675,,,,,0.0589,0.0598,0.0708,
I139M,0.0837,0.0802,0.0385,,0.0716,0.0566,0.0727,0.0597,0.0667,0.0688,0.0738,,,0.0933,0.0537,0.0544,0.069,,0.0468
V58K,0.0411,0.0543,0.0336,,,0.0289,0.0505,0.0356,,0.0439,0.0602,,0.0642,0.0472,,0.0788,0.0501,,
F173I,0.0598,,,0.0595,0.0599,,,0.0414,0.032,0.0606,0.0532,0.0659,,0.0495,0.0526,0.0491,,0.0667,
R160H,0.0766,,0.059,0.0716,,,0.0586,0.0983,0.0445,,0.0685,,,0.0648,0.0748,,,,
E108V,0.0586,0.0711,0.0611,0.0497,0.0573,0.0492,0.0532,0.0606,,0.0604,0.0587,,,0.0569,,0.0547,0.0554,,0.0538
H47I,0.0527,0.0662,,0.0702,0.0576,0.0553,0.0598,0.0617,0.0616,0.0546,0.0443,,,0.0516,,0.0583,0.058,,0.053
F65T,0.0657,0.0496,,,0.0495,0.0638,,0.0706,0.0677,,0.0555,,,0.111,0.0609,,0.0611,,0.0967
T132R,0.0594,0.0532,,,,0.0619,,0.0548,,0.0606,0.0562,,,,,0.0454,,,0.0662
